# Source: the supplement of paper PMC11417369
# The list shows a part of the results.
# System: PfSIP2 AP2 domain 1 (GST-tagged)
# Test: gcPBM binding intensity (ln(normalized median fluorescence intensity)); higher = stronger DNA binding
# Procedure, shortened: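 After 1 h on an Agilent 4 × 180k array of primer-extended double-stranded 36-bp intergenic genomic probes and negative controls, bound GST-tagged P. falciparum DNA-binding domains were detected with Alexa488 anti-GST antibody and scanned at 488 nm. The domains had been expressed in E. coli, and binding took place in 1× PBS with 1% milk, 0.2 mg/ml BSA, 0.5% salmon testes DNA and 0.03% Triton X-100. Binding intensity is the highest Masliner-normalised natural-log median intensity across replicate spots of either probe orientation.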
row,Sequence,gcPBM binding intensity (ln)
1,AAAAAAAAAAAAACTACACACATACAAATATTTATA [CACACA_site5430],7.03
2,TACATACATACAGGAGTGCATATATCACAATTATTA,9.25
3,AGTATACTCGGACACACACACACATATATATATATA [CACACA_site5031],9.59
4,TTTGTATAGTTGTAGGTGCATATCATTTTTAAATGT [GTGCAC_site9708],10.4
5,TGTTAATAAAGGTGTACACAAAATAAAAAAAATTAT [CACACA_site4288],7.72
6,AAAAAAAAAGGTAACGCATGCTTTTAGATTATATTA [TGCATGCA_site398],6.56
7,TATAATTATATTTGGAGTACAAATTTTTTTTTTTTT [XGTACX_site7494],7.14
8,AAGTATGCTTGCTACTTATTAAGTGGCAATATAATT [XGTACX_negctrl_site74],6.78
9,AGAACCATATATAAATGTACATGTTAATATGAATAA [XGTACX_site130],7.03
10,GGACAAAAAAAAAAAATAAAATAAAAATAAATAAAT [XGTACX_negctrl_site106],6.71
11,AAATATATATGAAGATGTACATATATATATGTAAAT [XGTACX_site4039],7.11
12,TAACACTTATAAAAAAGTACTGATGAAATAATACTA [XGTACX_site7305],6.69
13,AAAAATTCCAGACACACACACACATATAAATAAATA [CACACA_site1232],7.08
14,AAAAAAAAAAAAAAGAGTACTTTTTTCTCATTACTA [XGTACX_site8353],7.12
15,AAAAAAAAAAAAATAGGTACGTAAATATTTCTTTAA [XGTACX_site6423],6.97
16,TCTTTTAGTTTTATCCACATAATAAAAAGCAAAAAA [GTGCAC_negctrl_site368],7.09
17,TATTCTTCAATTTAAAGTACAAAAATTACTATACTT [XGTACX_site6599],6.87
18,AATTAAAATATATATATACACACGTAATTATATATA [CACACA_site3819],6.8
19,ATTGTGGCAATATATTGTACATGTAATATAAATATA [XGTACX_site5415],7.06
20,TACATATAATATATTGCACACGTCAGAATAATATAG [CACACA_site1744],7.28
21,TAATAGAATATGATGGTGCAGCAGTCTTATTTTTCA,9.68
22,TTTCTTTCTTCACATATATATATATATATATTTATA [TGCATGCA_negctrl_site341],7.49

row,Sequence,gcPBM binding intensity (ln)
1,TTAGCCATTAATTCTCTACACACCTTTATGTTATTT [CACACA_site9212],6.79
2,TTTTATAATATTTAAAGTACATTCTAAAAATATAAT [XGTACX_site8033],6.87
3,CCCCCCCACGGACACACACACATACATACCACATAT [CACACA_site5303],9.09
4,ATTTTTTTTTTTTTTTTTTTTTTTTAGATTAAGAAA [CACACA_negctrl_site1272],6.76
5,AAATAAAATAAAATAAAATAAAATTCTTTGATACCT [TGCATGCA_negctrl_site604],6.85
6,TATTCTAATTTTTAAACACACAAATATAAATAAGTA [CACACA_site3149],6.89
7,CTATTTATTATATATACATGCATATATATATTAATA [TGCATGCA_site527],7.06
8,TAAAAATGTGTATGTACACACTTTATTTTTAATACA [CACACA_site7235],6.79
9,GATAATTATGGACACACACACACACCCACAACTAAA [CACACA_site8824],7.11
10,TATTAAACGAAACACACACACACACCCATATATAAA [CACACA_site759],7.1
11,AAAAAGAATGTGAACACACACATTGAATCTAATTTA [CACACA_site6711],6.75
12,AGATGATATATTATATATCCTTTTAATAAATGTAAT [CACACA_negctrl_site730],6.72
13,ACATATAATATATATATATATATATATATATATAAT [GTGCAC_negctrl_site648],7.63
14,TATATAAAAAATTCAATACACACCATATATAAATAT [CACACA_site3987],6.98
15,TATTTTTCCATATGCACACACACCGTATATATAATA [CACACA_site1127],7.82
16,ATAACAAAATAAAACACACACACAAATGTACATATA [CACACA_site2425],7.19
17,CATATACACCAACACACACACACACCCACAAAAAAA [CACACA_site496],7.45
18,AAATAAATAATTTAATGTACATATATAATATATATA [XGTACX_site1831],7.23
19,CTTTTTAATAAATATACACACACAAAAAAAAAAAAA [CACACA_site9316],6.9
20,TAAATAAAGTATAATGCATGCTATTATAATATTAAT [TGCATGCA_site825],6.99
21,CACTTTATACGTAATTGTACTTTTTCTTTTTTTTAT [XGTACX_site3175],7.23
22,TATTCAAAGAAAGACAGTACGTGTAGCAAACAACCT [XGTACX_site4218],6.91

row,Sequence,gcPBM binding intensity (ln)
1,ACTTACTAATTAATGGGTACATACACACATATATAC [XGTACX_site1362],7.48
2,AATAAAAAAATAGAAACACACATTAAAAAAAATAAA [CACACA_site1333],6.78
3,ATGATATATAGACACACACACATATTTATATACATT [CACACA_site6404],6.97
4,ATCATTTATTTTTTAAAAGTATATATATATATATAT [CACACA_negctrl_site220],9.47
5,TTAATAAAAATATATCCACACACATATATATATATG [CACACA_site8091],7.26
6,TTTTTTTTTTTTTAAATAATCATACATGTGAAATTG [GTGCAC_negctrl_site328],6.95
7,ACATATTATAACATATGTACATATATATATATATAA [XGTACX_site5567],7.48
8,AAATATAAGTTTTATTGTACATTATATAGCATATTT [XGTACX_site6618],6.93
9,TTTTGACATTAACTTAAAAAATAAATAATTATAAAA [XGTACX_negctrl_site552],6.88
10,TATCATATAAAACATGCACACATATGTACTCTTATA [CACACA_site9249],7.62
11,AAAAAATAAGATTGTACACACATAAATTCTTTGTCA [CACACA_site2089],6.85
12,CGTTCTATTTAGATATGTACTTAAATATATGATCAT [XGTACX_site2936],7.02
13,TTATAAAACACAAAATGTACAAAAAATTATAATTAA [XGTACX_site6859],6.97
14,TTAAAGAATATTTTCACACATAAAAATTTTAATTTA [CACACA_site4290],6.63
15,AATATTATTATCTTACCACACACAATCTACGAAAAG [CACACA_site8006],7.08
16,TATATATATATAAGTGCACACTGAACCAAGAAAATT [CACACA_site5637],9.97
17,TATGTCTTGTTGTAAAATATTTATTAACAAATTGGC [CACACA_negctrl_site1452],7.06
18,ATTTTTATTTTCTTTACACACCACATAACTTTTTTT [CACACA_site7826],7.36
19,ATATATATATATATATGTACATATATCTACATATAT [XGTACX_site7588],9.79
20,ACTTTTTAATATTTTAGTACACAGTAATTCTTACTA [XGTACX_site1425],7.65
21,TTTAATATGAATTTATGTACATATATATATATATAT [XGTACX_site6337],9.53
22,TATATTAAAAAAAAATGTACATATATATAATATATA [XGTACX_site1935],7.37

row,Sequence,gcPBM binding intensity (ln)
1,AAAAAGTGATTAAAATGTACAAAATGCATAAAAGAA [XGTACX_site6625],7.8
2,GATATGTTAAATATATGTACATATATAAACCCAAAC [XGTACX_site6601],7.29
3,AAAGTAAAAAAAAAAACATGCATACGCTAATTTTTA [TGCATGCA_site301],6.7
4,ATTTTAATACTTTTATATTAAATGTAGCACATCATA [XGTACX_negctrl_site273],6.89
5,CATTTTTTGCTTTCAACACACATACAATATAAATAA [CACACA_site7858],7.27
6,TTATTTATTTAGTAGTGTACTTTTTATATTTATAAT [XGTACX_site5978],6.88
7,AAAAAAAAAAAATACACACACATATATATATATATA [CACACA_site2224],9.24
8,TATGTAATAAATAGTACACACACACCGATATATATA [CACACA_site8389],7.46
9,TATAATAATATTATAGTGCATATTATTTATATATAA [GTGCAC_site9820],8.67
10,AAAAAAAAAAAAAATAGTACGTAACTATAATTTCCT [XGTACX_site2457],7.3
11,AAATTATAAGTAAAAAGTACTTAATATATAATAAAC [XGTACX_site6065],7.08
12,CTTATACTTCTACATCGTACAAAAGATGGTATAATT [XGTACX_site2698],7.09
13,TAACTTAAATAATACATACACACATGTACATACAGA [CACACA_site1594],6.91
14,TATAATTTTTTTTGGGTGCTTGGGTAAATTTTATTA,7.86
15,AATTATATATTATCATGTACAAATATAGTAATACAA [XGTACX_site6845],7.06
16,ATACGTATATAATATACATGCATATATAGCACATAC [TGCATGCA_site376],7.61
17,ATAAAAAAAAAAAAAAATGAAGCATCACCGTGTAAT [XGTACX_negctrl_site288],6.99
18,CACGAAAAAAAAAAATGTACATAAAAATATGATACA [XGTACX_site2536],6.85
19,AAAAAAAAAAAAAAAAAAAAAGGACGGATGGATGGA [GTGCAC_negctrl_site527],8.37
20,TCTCATTTCAACAACAGTACATATCTATCTGTGTAT [XGTACX_site6897],6.96
21,GAAAGAGAAATATATACACACATATTTATATTTTTA [CACACA_site2066],6.85
22,CCTAATTTTTTTAGTTGTACTTTTTTTTTTTTTTAT [XGTACX_site7948],7.06
